Experimental data taken from the supplement of paper PMC8728848.
The list shows a part of the results.

Key:
Assay in all cases: glycan array binding signal (z-score within array); higher = stronger binding
Conditions in all cases: glycan notation: IUPAC condensed, linker removed
[1] = molecular target: Gal(b1-4)GlcNAc(b1-3)Gal(b1-4)GlcNAc(b1-3)[Gal(b1-4)GlcNAc(b1-3)Gal(b1-4)GlcNAc(b1-6)]GalNAc
Procedure, shortened: (§1)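 The binding signal is a Z-score computed within each array. Data were drawn from 3228 arrays in the Consortium for Functional Glycomics database, restricted to those with a known protein sequence. Scores were averaged over arrays of the same protein sequence at different concentrations or buffers, and over linkers, and negative values can be taken as non-binding.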

[2] = molecular target: Gal(b1-4)GlcNAc(b1-3)Gal(b1-4)GlcNAc(b1-6)[Gal(b1-3)]GalNAc
Procedure, shortened: as §1

[3] = molecular target: Gal(b1-4)GlcNAc(b1-3)Gal(b1-4)[Fuc(a1-3)]GlcNAc(b1-3)Gal(b1-4)[Fuc(a1-3)]GlcNAc
Procedure, shortened: as §1

[4] = molecular target: Gal(b1-4)GlcNAc(b1-3)GalNAc
Procedure, shortened: as §1

[5] = molecular target: Gal(b1-4)GlcNAc(b1-3)[Fuc(a1-3)GlcNAc(b1-6)]Gal(b1-4)Glc
Procedure, shortened: as §1

[6] = molecular target: Gal(b1-4)GlcNAc(b1-3)[Gal(b1-4)GlcNAc(b1-6)]Gal(b1-4)GlcNAc
Procedure, shortened: as §1

[7] = molecular target: Gal(b1-4)GlcNAc(b1-3)[GlcNAc(b1-6)]Gal(b1-4)GlcNAc
Procedure, shortened: as §1

[8] = molecular target: Gal(b1-4)GlcNAc(b1-6)Gal(b1-4)GlcNAc
Procedure, shortened: as §1

[9] = molecular target: Gal(b1-4)GlcNAc(b1-6)GalNAc
Procedure, shortened: as §1

[10] = molecular target: Gal(b1-4)GlcNAc(b1-6)[Gal(b1-3)]GalNAc
Procedure, shortened: as §1

[11] = molecular target: Gal(b1-4)GlcNAc(b1-6)[Gal(b1-4)GlcNAc(b1-3)]GalNAc
Procedure, shortened: as §1

[12] = molecular target: Gal(b1-4)GlcNAc6P
Procedure, shortened: as §1

[13] = molecular target: Gal(b1-6)Gal
Procedure, shortened: as §1

[14] = molecular target: Gal3S(b1-3)GalNAc
Procedure, shortened: as §1

[15] = molecular target: Gal3S(b1-3)GlcNAc
Procedure, shortened: as §1

[16] = molecular target: Gal3S(b1-3)[Fuc(a1-4)]GlcNAc
Procedure, shortened: as §1

[17] = molecular target: Gal3S(b1-4)Glc
Procedure, shortened: as §1

[18] = molecular target: Gal3S(b1-4)Glc6S
Procedure, shortened: as §1

[19] = molecular target: Gal3S(b1-4)GlcNAc
Procedure, shortened: as §1

[20] = molecular target: Gal3S(b1-4)[Fuc(a1-3)]Glc6S
Procedure, shortened: as §1

[21] = molecular target: Gal3S(b1-4)[Fuc(a1-3)]GlcNAc
Procedure, shortened: as §1

[22] = molecular target: Gal3S(b1-4)[Fuc(a1-3)]GlcNAc6S
Procedure, shortened: as §1

[23] = molecular target: Gal3S4S(b1-4)GlcNAc
Procedure, shortened: as §1

[24] = molecular target: Gal3S6S(b1-4)GlcNAc
Procedure, shortened: as §1

[25] = molecular target: Gal3S6S(b1-4)GlcNAc6S
Procedure, shortened: as §1

[26] = molecular target: Gal4S(b1-4)GlcNAc
Procedure, shortened: as §1

[27] = molecular target: Gal4S6S(b1-4)GlcNAc
Procedure, shortened: as §1

[28] = molecular target: Gal6P(b1-4)GlcNAc
Procedure, shortened: as §1

[29] = molecular target: Gal6S(b1-3)GlcNAc
Procedure, shortened: as §1

[30] = molecular target: Gal6S(b1-3)GlcNAc6S
Procedure, shortened: as §1

[31] = molecular target: Gal6S(b1-4)Glc
Procedure, shortened: as §1

[32] = molecular target: Gal6S(b1-4)Glc6S
Procedure, shortened: as §1

[33] = molecular target: Gal6S(b1-4)GlcNAc
Procedure, shortened: as §1

[34] = molecular target: Gal6S(b1-4)GlcNAc6S
Procedure, shortened: as §1

[35] = molecular target: GalNAc(a1-3)Gal
Procedure, shortened: as §1

[36] = molecular target: GalNAc(a1-3)GalNAc
Procedure, shortened: as §1

[37] = molecular target: GalNAc(a1-3)GalNAc(b1-3)Gal(a1-4)Gal(b1-4)Glc
Procedure, shortened: as §1

[38] = molecular target: GalNAc(a1-3)GalNAc(b1-3)Gal(a1-4)Gal(b1-4)GlcNAc
Procedure, shortened: as §1

[39] = molecular target: GalNAc(b1-3)Gal
Procedure, shortened: as §1

[40] = molecular target: GalNAc(b1-3)Gal(a1-4)Gal(b1-4)GlcNAc
Procedure, shortened: as §1

[41] = molecular target: GalNAc(b1-3)Gal(a1-4)Gal(b1-4)GlcNAc(b1-3)Gal(b1-4)Glc
Procedure, shortened: as §1

[42] = molecular target: GalNAc(b1-3)Gal(a1-6)Gal(b1-4)Glc
Procedure, shortened: as §1

[43] = molecular target: GalNAc(b1-3)GalNAc
Procedure, shortened: as §1

[44] = molecular target: GalNAc(b1-3)GlcNAc
Procedure, shortened: as §1

[45] = molecular target: GalNAc(b1-4)Gal(b1-4)Glc
Procedure, shortened: as §1

B1: CpGal16 (Clavelina picta) (protein)
chain: MAKMITNYVGKRIECIMVATDMMSTVFSLASATGDLPFYINFRQRENSIVMNTRVHGKWQYEKSQSSGGMNFYEPFRLVVEVRPSVFKVTVSTMGEEDGITFNLQYSQITIKPDEIVAMHLGYCNLRSELLVTDL
In the case of B1, the “glycan array binding signal (z-score)” value [1] is reported as 0.123, the “glycan array binding signal (z-score)” value [2] is reported as -0.075 and the “glycan array binding signal (z-score)” value [3] is reported as -0.371. The “glycan array binding signal (z-score)” value [4] was -0.46, the “glycan array binding signal (z-score)” value [5] was -0.452 and the “glycan array binding signal (z-score)” value [6] was 0.218. The “glycan array binding signal (z-score)” value [7] was -0.287, the “glycan array binding signal (z-score)” value [8] was -0.331 and the “glycan array binding signal (z-score)” value [9] was -0.189. For the same binder, the “glycan array binding signal (z-score)” value [10] was -0.295, the “glycan array binding signal (z-score)” value [11] was -0.331 and the “glycan array binding signal (z-score)” value [12] was -0.325. For the same binder, the “glycan array binding signal (z-score)” value [13] was -0.407, the “glycan array binding signal (z-score)” value [14] was -0.223 and the “glycan array binding signal (z-score)” value [15] was 0.11. The “glycan array binding signal (z-score)” value [16] was -0.266, the “glycan array binding signal (z-score)” value [17] was -0.148 and the “glycan array binding signal (z-score)” value [18] was 0.297. For the same binder, the “glycan array binding signal (z-score)” value [19] was -0.199, the “glycan array binding signal (z-score)” value [20] was 0.049 and the “glycan array binding signal (z-score)” value [21] was -0.279. For the same binder, the “glycan array binding signal (z-score)” value [22] was -0.248, the “glycan array binding signal (z-score)” value [23] was -0.392 and the “glycan array binding signal (z-score)” value [24] was -0.128. The “glycan array binding signal (z-score)” value [25] was -0.138, the “glycan array binding signal (z-score)” value [26] was -0.386 and the “glycan array binding signal (z-score)” value [27] was -0.338. For the same binder, the “glycan array binding signal (z-score)” value [28] was -0.464, the “glycan array binding signal (z-score)” value [29] was -0.282 and the “glycan array binding signal (z-score)” value [30] was -0.263. The “glycan array binding signal (z-score)” value [31] was -0.172, the “glycan array binding signal (z-score)” value [32] was -0.12 and the “glycan array binding signal (z-score)” value [33] was -0.387. For the same binder, the “glycan array binding signal (z-score)” value [34] was -0.175, the “glycan array binding signal (z-score)” value [35] was -0.466 and the “glycan array binding signal (z-score)” value [36] was -0.444. For the same binder, the “glycan array binding signal (z-score)” value [37] was -0.506, the “glycan array binding signal (z-score)” value [38] was -0.391 and the “glycan array binding signal (z-score)” value [39] was -0.439. The “glycan array binding signal (z-score)” value [40] was -0.065, the “glycan array binding signal (z-score)” value [41] was -0.347 and the “glycan array binding signal (z-score)” value [42] was -0.371. The “glycan array binding signal (z-score)” value [43] was -0.488, the “glycan array binding signal (z-score)” value [44] was 0.462 and the “glycan array binding signal (z-score)” value [45] was -0.269.
